# Some of the results follow.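 The calls were made as follows: active = GRHL reporter fold change of at least 2 over DMSO at 10 µM; inactive = below 2-fold.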 Most values come without repeats; read them as rough.
# System: HEK293 GRHL-luciferase reporter
# Test: GRHL luciferase reporter activity, fold change over DMSO control; higher = stronger GRHL reporter activation
# Settings: 10 µM; 24 h
# 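Also: stable HEK293 line carrying repeated GRHL consensus sites upstream of a minimal promoter driving luciferase, luminescence read 24 h post-treatment, normalized to 0.5% DMSO vehicle wells.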
row,Compound,GRHL luciferase reporter activity
1,N[C@@H](Cc1ccccc1)C(=O)O,inactive: 0.942
2,Clc1ccc2c(c1)C(N1CCNCC1)=Nc1ccccc1O2,inactive: 0.363
3,C[C@H]1[C@H](NC(=O)/C(=N\OC(C)(C)C(=O)O)c2csc(N)n2)C(=O)N1S(=O)(=O)O,inactive: 0.966
4,CCCc1nn(C)c2c(=O)[nH]c(-c3cc(S(=O)(=O)N4CCN(C)CC4)ccc3OCC)nc12,inactive: 1.07
5,O=c1ccn([C@@H]2O[C@H](CO)[C@@H](O)[C@H]2O)c(=O)[nH]1,inactive: 1.06
6,COc1ccc(-c2oc3c(CC=C(C)C)c(O[C@@H]4O[C@H](CO)[C@@H](O)[C@H](O)[C@H]4O)cc(O)c3c(=O)c2O[C@@H]2O[C@@H](C)[C@H](O)[C@@H](O)[C@H]2O)cc1,inactive: 0.987
7,CC(C)c1ccc2c(c1)CCC1C(C)(C(N)=O)CCCC21C (centres undefined),inactive: 1.47
8,O=C(O)[C@H](O)[C@@](O)(Cc1ccc(O)cc1)C(=O)O,inactive: 1.05
9,CC(C)(C)NCC(O)c1cc(O)cc(O)c1 (centres undefined),inactive: 0.887
10,CCN(CC)CCNC(C(=O)OCCC(C)C)c1ccccc1 (centres undefined),inactive: 0.908
11,COc1ccc(-c2coc3cc(O)cc(O)c3c2=O)cc1,active: 4.06
12,COc1cc(O)c2c(c1)C(=O)c1cc(C)cc(O)c1C2=O,inactive: 1.56
13,CCN(CC)CCOC(=O)C(c1ccccc1)c1ccccc1,inactive: 0.854
14,CC(=O)O[C@]1(C(C)=O)CC[C@H]2[C@@H]3C=C(Cl)C4=CC(=O)[C@@H]5C[C@@H]5[C@]4(C)[C@H]3CC[C@@]21C,inactive: 0.987

# Reference: the supplement of paper PMC8748497
